The record followed here is the supplement of paper PMC11417369.

± gives the standard deviation of the averaged measurements. The list shows a part of the results.

This test has as its system PfAP2-LT AP2 domain (GST-tagged). The test can be described thus: gcPBM binding intensity (ln(normalized median fluorescence intensity)); higher = stronger DNA binding. In short, it runs like this:
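GST-fused DNA-binding domains of P. falciparum, expressed in E. coli, were applied at about 25 μg on average for 1 h to an Agilent 4 × 180k array of primer-extended double-stranded 36-bp intergenic genomic probes and negative controls. Binding intensity is the highest Masliner-normalised natural-log median intensity across replicate spots of either probe orientation, measured with Alexa488 anti-GST antibody and a 488 nm scan.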
As for “GACTATTTTAATATTTTACACACCATGTAAAATATA [CACACA_site9050]”, the “gcPBM binding intensity (ln)” value was 8.82 ± 0.36.
As for “ACATAATAAAAAAAACGTACAAATAGGTTTTTCATA [XGTACX_site6645]”, the figure is 8.85 ± 0.57; as for “TATATATATATATACACACACACCGTCCGTGTTAAA [CACACA_site2979]”, 9.83 ± 0.33.
As for ATATATTAAAACCTAGTGCATTTGTACATATTTCAA, the figure is 8.71 ± 0.41; as for “AGGTTAAAACATATATATATATATATATATATATAT [XGTACX_negctrl_site333]”, 10 ± 0.21; as for TTATACAGGACAATAGTGCACATAAATATATGTATA, 9.04 ± 0.44.
As for “GCAGTCAAAAAGGAAAATATAAAAAAAGTATATGTG [GTGCAC_negctrl_site95]”, the figure is 8.71 ± 0.47.
Take “TATTTACAAATAAAAAGTACATAAACTAATATCTTT [XGTACX_site2181]”: the “gcPBM binding intensity (ln)” value turned out to be 8.53 ± 0.43.
Take “ATCTGTACAGTTTTTGCACACATATAAATAAAAAAA [CACACA_site9198]”: the “gcPBM binding intensity (ln)” value came out at 8.98 ± 0.42.
As for “TTGTTTGTAAACAGATGTACATATAAAAATATATAT [XGTACX_site3370]”, the figure is 8.72 ± 0.42; as for “TATATTAGAAAGGATACACACATATATAAATATCTA [CACACA_site6411]”, 8.85 ± 0.41.
In the case of “ATATATATATATATATGTACATATATTTGTAATGTC [XGTACX_site8074]”, the “gcPBM binding intensity (ln)” value amounted to 9.83 ± 0.13.
As for “TTTATTATGTAAGCATGTACATGATGTATATATTTA [XGTACX_site5021]”, the figure is 8.77 ± 0.45.
As for “ATTTTTTAAAATATTTGTACATATATAATGCATATA [XGTACX_site7026]”, the figure is 8.62 ± 0.43; as for “CACAGACACGGACACACACACACACCGATATATATA [CACACA_site4353]”, 9.88 ± 0.24; as for “TAAATACTTATATGTACACACATATAGATATATATT [CACACA_site2553]”, 8.96 ± 0.33.
As for “ATATAAATAAATGTATGTACATATATTTATATGCAT [XGTACX_site4185]”, the figure is 8.78 ± 0.33; as for “GAAAAATTGAATTTGGGTACATATAAATATTATATT [XGTACX_site2363]”, 8.53 ± 0.38.
“ATAAATATTAGCAGTTGTACAATAAATATATGTAAT [XGTACX_site2534]”: the “gcPBM binding intensity (ln)” value was 8.97 ± 0.43.
On to TTCCCTATATAGAGCATGCACTATATTCAAATGATG, for which the “gcPBM binding intensity (ln)” value worked out at 8.72 ± 0.42.
With “TTAGATATAAAAGCATGTACTTGTATAAAATATATA [XGTACX_site8272]”, the “gcPBM binding intensity (ln)” value came to 8.54 ± 0.49.
As for “TTATCAAATGAGTGTTGTACGTCTTTTGAAATACCA [XGTACX_site8804]”, the figure is 8.49 ± 0.34; as for “TCAGATCCATAGAAGGTGCAAATAACAAAAATACAA [GTGCAC_site9610]”, 8.96 ± 0.54.
On to “TAATTTTTCTTATATAGTACACAAAAAGAAAATTAC [XGTACX_site6393]”, for which the “gcPBM binding intensity (ln)” value is 8.31 ± 0.35.
As for “AAAATGTTTTTATCCAGTACATAAATATATATATAT [XGTACX_site7398]”, the figure is 8.78 ± 0.3; as for “TATGAACACCCAAATACACACACTCAAAAAAAAAAA [CACACA_site5466]”, 9.36 ± 0.4.
Consider CTTTATATATATTGCGTGCACATTTTTTTTTTTTTT, for which the “gcPBM binding intensity (ln)” value turned out to be 8.99 ± 0.53.
Turning to “CTATTTAAAATTTGAACACACATTATTTATTTTAAA [CACACA_site3114]”, the “gcPBM binding intensity (ln)” value was determined as 8.42 ± 0.48.
For the sequence “GAAATAATAAAATCGACACACAAAAAAAAAAAAAAA [CACACA_site3476]”, the “gcPBM binding intensity (ln)” value is 8.94 ± 0.48.
As for “AATAAATACAAAAATGTACACACATATATATATTTT [CACACA_site9167]”, the figure is 9.02 ± 0.42; as for “TCAATATATATAAGAAGTACATGTGAATGAAAAAAA [XGTACX_site1674]”, 8.86 ± 0.54; as for “TTCTGTATACGGTGTGCACACAATTAAAAAAAAAAA [CACACA_site1416]”, 9.21 ± 0.54.
As for “AACATATAAAAATATGCACACACAGGAATACAAACA [CACACA_site8127]”, the figure is 9.89 ± 0.45; as for “TTAAATAACCTCAAGGATAAGAAAAAATTAAAAATT [CACACA_negctrl_site1336]”, 8.46 ± 0.49; as for “GTAAATATATATATATATATATATATATATATATAT [GTGCAC_negctrl_site239]”, 9.81 ± 0.11.
As for “TTTATATACTATCAACGTACAAAAGTAATAAAAATA [XGTACX_site4343]”, the figure is 8.66 ± 0.52; as for “GGATTTTACCATAGCACACATATATGAATATTTTTC [CACACA_site1814]”, 8.99 ± 0.34.
With “TTGTAACAAAAGTACACACACATTTCTATAAATTTT [CACACA_site2772]”, the “gcPBM binding intensity (ln)” value was found to be 9.11 ± 0.38.
As for CATTTTATTTTCTTTGTGCACAAAAATATTTTTTCT, the figure is 8.89 ± 0.44; as for “AAAGTTATGATATATACACACATATAAATATTAAAT [CACACA_site6361]”, 9.02 ± 0.45; as for “TGTTCTAATTTTAATTGTACATATATACATATATAT [XGTACX_site7290]”, 8.98 ± 0.47.
As for “TTTAAAAAAAAAAAAAATTTTTTTTTTTTTTTTTTA [CACACA_negctrl_site1415]”, the figure is 7.83 ± 0.49; as for “CATATATATATATGAACACACAAAAAGAATATTTCC [CACACA_site1493]”, 9.06 ± 0.47; as for “TCTATACCTATTCTTACACACATATGTATTTATATA [CACACA_site4475]”, 9.28 ± 0.46.
As to “TTCTATGCATTTATAGTGCATGTAAAATATAAGATA [GTGCAC_site9466]”, the “gcPBM binding intensity (ln)” value is 8.38 ± 0.3.
